Test results reported in patent US12296017B2, “Bioorthogonal compositions” (TAMBO, INC., priority 2017, dated 2025).
Converted amounts (≈) assume the structure as drawn. Like-named read-outs stand apart in the source and are kept apart here.

Tests used:
[1] = FIG. 6
[2] = system: fibrosarcoma (HT-1080) xenografts; experiment: HT-1080 fibrosarcoma xenograft in athymic nude mice with alginate TAG; details: for median tumor size: alginate TAG
[3] = mouse plasma, in vitro, preliminary
[4] = human plasma, in vitro, preliminary
[5] = system: MCF-7 (human breast cancer cell line) xenograft; experiment: MCF-7 breast cancer xenograft in mice with pre-injected gel; format: in vivo
Procedure: A releasable form of doxorubicin was synthesized and tested in mice growing a xenograft of MCF-7 (human breast cancer cell line) or a xenograft of HT1080 (human soft tissue sarcoma). In a breast cancer model, mice (n=4) received two doses of doxorubicin or TCO-doxorubicin at 5 mg/kg every three days in the presence of pre-injected gel at the xenograft site.

[6] = system: methicillin-sensitive S. aureus (MSSA)
[7] = system: luminescent methicillin-sensitive S. aureus (MSSA)
[8] = thirty days after the last treatment dose (60 dpi)
[9] = two weeks after the last treatment dose (40 dpi), doxorubicin 3 x 14 μmoles/kg every 4 days, pro-drug 14 μmoles/kg daily for 10 days

Question: Which results are given for `COc1cccc2c1C(=O)c1c(O)c3c(c(O)c1C2=O)CC(O)(C(=O)CO)CC3OC1CC(NC(=O)OC2C=CCCC(C)(C(=O)N3CCOCC3)CC2)C(O)C(C)O1` (stereo not drawn) [Example 1, Morpholine-TCO-Doxorubicin]?
Answer: increase in aqueous solubility relative to TCO-doxorubicin [1]: over 70 fold; solubility in saline relative to regular TCO-dox ([1]; saline): over 70 times

Question: With `COc1cccc2c1C(=O)c1c(O)c3c(c(O)c1C2=O)CC(O)(C(=O)CO)CC3OC1CC(NC(=O)OC2C=CCCCCC2)C(O)C(C)O1` (stereo not drawn) [TCO-doxorubicin] as the compound, how does the “tumor volume versus untreated mice” value ([2]; local injection of unmodified alginate (no TAG)) read?
Answer: No differences in tumor volume

Question: What about the median tumor size [2, 8] of the same compound?
Answer: remained undetectable

Question: What about the median tumor size [2, 9] of the same compound?
Answer: undetectable

Question: And the half-life in plasma [3]?
Answer: 19.3 h

Question: What about the half-life in plasma [4] of the same compound?
Answer: 6.8 h

Question: And the “greater tumor reduction compared to regular doxorubicin” value ([5]; after two doses at 5 mg/kg every three days, pre-injected gel)?
Answer: 40%

Question: What about the “tumor response compared with vehicle control” value ([5]; two doses at 5 mg/kg every three days, pre-injected gel at xenograft site, p<0.05) of the same compound?
Answer: significant tumor shrinkage

Question: What about the “overt signs of toxicity, including weight loss or changes in coat texture” value (14 μmoles/kg daily for 10 days with alginate TAG) of the same compound?
Answer: did not show any overt signs of toxicity

Question: For `CN[C@H](CC(C)C)C(=O)N[C@H]1C(=O)N[C@@H](CC(N)=O)C(=O)N[C@H]2C(=O)N[C@H]3C(=O)N[C@H](C(=O)N[C@H](C(=O)O)c4cc(O)cc(O)c4-c4cc3ccc4O)[C@H](O)c3ccc(c(Cl)c3)Oc3cc2cc(c3O[C@@H]2O[C@H](CO)[C@@H](O)[C@H](O)[C@H]2O[C@H]2C[C@](C)(NC(=O)OC3/C=C/CCCCC3)[C@H](O)[C@H](C)O2)Oc2ccc(cc2Cl)[C@H]1O` (stereo partly drawn) [Vanco-R-TCO], which “bacterial activity by isothermal microcalorimetry” value ([6]; combination with TAG) is on record?
Answer: eliminated observable bacterial activity

Question: And the “bacterial activity by isothermal microcalorimetry” value ([6]; control alginate)?
Answer: much-reduced affect

Question: What about the “inhibition of bacterial growth” value ([7]; 2.0 nmoles combined with regular (unmodified) alginate gel) of the same compound?
Answer: did not inhibit bacterial growth

Question: And the “minimum inhibitory concentration (MIC)” value ([7]; mixed with alginate TAG, luminescence measured 16 hours after addition of the bacteria)?
Answer: 2.0 nmol/mL (≈ 3.2 µg/mL)

Question: Which results are given for `COc1cccc2c1C(=O)c1c(O)c3c(c(O)c1C2=O)C[C@@](O)(C(=O)CO)C[C@@H]3O[C@H]1C[C@H](N)[C@H](O)[C@H](C)O1` [doxorubicin, reference compound]?
Answer: median tumor size [2, 8]: greater than 2000 mm^3; median tumor size [2, 9]: undetectable; reticulocyte counts (myelosuppression) (3 days after the end of therapy, alginate TAG): dramatic decrease in reticulocytes; loss of body weight (HT-1080 xenograft mice, FIG. 4C): about 20 % of body weight
